The whole screen tested about 220,000 compounds, of which about 5,700 (2.6%) were called active. The shares of active, inactive and inconclusive entries below differ from those in the screen. Calls come from the whole dose curve; as a rule, active = well fitted inhibition curve with a large enough effect; inconclusive = small, poorly fitted or top-dose-only effect; inactive = no such curve, though single readings can be large or run the other way. Potencies of inconclusive entries are doubtful fits and often do not repeat.
target: Lysine-specific demethylase 5B (Homo sapiens) (UniProt Q9UGL1); assay: Primary screen for KDM5B Histone Demethylases FDH-coupled qHTS; conditions: FDH-coupled NADH fluorescence (FDH is formaldehyde dehydrogenase); activity change, negative = inhibition: at 57.7 µM (top of the series) unless noted; note: nearly all actives have a fitted effect of over 70% in size; for activity change, negative = inhibition: 0% is about no effect
Procedure, shortened: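 Inhibition is measured as reduced NADH fluorescence generation from FDH coupling to formaldehyde release. Truncated KDM5BΔAP at 200 nM final acts on H3K4me3 peptide (12.5 µM in substrate mix) in pH 7.5 HEPES buffer with Tween-20, 30 min, room temperature.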
Potency is the fitted concentration of half-maximal effect; tags give direction and shape of the fitted curve.

UniProt Q9UGL1, sequence (Q9UGL1 whole entry, looked up, the tested form may be a part): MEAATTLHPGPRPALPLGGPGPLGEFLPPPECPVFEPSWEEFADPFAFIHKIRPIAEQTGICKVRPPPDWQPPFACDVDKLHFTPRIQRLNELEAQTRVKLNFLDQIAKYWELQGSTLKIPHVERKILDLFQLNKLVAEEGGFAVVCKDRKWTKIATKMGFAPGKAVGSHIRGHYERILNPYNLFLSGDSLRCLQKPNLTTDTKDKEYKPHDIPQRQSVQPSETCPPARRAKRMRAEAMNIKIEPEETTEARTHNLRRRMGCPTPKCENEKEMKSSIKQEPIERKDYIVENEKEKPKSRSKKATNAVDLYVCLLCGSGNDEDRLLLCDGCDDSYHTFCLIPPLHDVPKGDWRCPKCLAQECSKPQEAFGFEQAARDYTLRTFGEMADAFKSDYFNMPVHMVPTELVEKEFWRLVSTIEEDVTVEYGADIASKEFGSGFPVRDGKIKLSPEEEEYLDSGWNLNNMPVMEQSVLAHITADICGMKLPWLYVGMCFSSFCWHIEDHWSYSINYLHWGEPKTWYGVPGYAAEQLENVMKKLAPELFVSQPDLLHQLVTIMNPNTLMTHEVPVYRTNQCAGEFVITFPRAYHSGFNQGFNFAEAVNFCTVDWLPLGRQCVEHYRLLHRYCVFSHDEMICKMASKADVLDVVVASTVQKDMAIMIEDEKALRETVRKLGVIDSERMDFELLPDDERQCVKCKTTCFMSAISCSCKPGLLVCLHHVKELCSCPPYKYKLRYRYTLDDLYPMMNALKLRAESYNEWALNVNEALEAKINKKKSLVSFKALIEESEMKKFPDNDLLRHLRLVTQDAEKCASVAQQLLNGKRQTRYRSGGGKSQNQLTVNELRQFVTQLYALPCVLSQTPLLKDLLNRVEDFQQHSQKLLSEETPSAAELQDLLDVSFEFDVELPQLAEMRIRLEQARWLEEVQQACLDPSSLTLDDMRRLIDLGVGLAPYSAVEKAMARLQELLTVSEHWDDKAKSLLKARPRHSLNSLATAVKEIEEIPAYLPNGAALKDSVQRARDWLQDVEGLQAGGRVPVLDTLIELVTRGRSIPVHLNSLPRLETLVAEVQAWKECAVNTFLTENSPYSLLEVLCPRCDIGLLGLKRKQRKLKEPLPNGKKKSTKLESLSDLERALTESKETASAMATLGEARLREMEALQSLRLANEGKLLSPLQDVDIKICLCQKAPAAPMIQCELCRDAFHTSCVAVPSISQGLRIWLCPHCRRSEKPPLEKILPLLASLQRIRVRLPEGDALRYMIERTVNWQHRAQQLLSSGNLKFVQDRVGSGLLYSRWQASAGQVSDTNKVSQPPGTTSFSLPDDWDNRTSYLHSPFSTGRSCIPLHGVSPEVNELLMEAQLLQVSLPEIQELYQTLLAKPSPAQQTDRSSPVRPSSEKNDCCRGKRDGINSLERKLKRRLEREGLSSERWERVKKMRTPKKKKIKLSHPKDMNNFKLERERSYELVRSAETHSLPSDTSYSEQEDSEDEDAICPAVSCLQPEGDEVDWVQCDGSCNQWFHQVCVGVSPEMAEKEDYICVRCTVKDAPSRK

| SMILES | Potency | activity change, negative = inhibition |
| --- | --- | --- |
| Cc1ccc(C)c(NC(=O)Cn2ccn3nc4c(c3c2=O)CCCCC4)c1 | inconclusive: 28.2 µM [inhibitor, partial curve, poor fit] | – |
| Cc1[nH][nH]c(=O)c1C(c1ccc(OCc2ccccc2)cc1)c1c(C)[nH][nH]c1=O | inconclusive: 11.2 µM [inhibitor, partial curve, poor fit] | – |
| CC(NC(=O)CN1CSCC1=O)c1ccccc1Cl (stereo not given) | – | inactive: -6.27% |
| CCN1C(=O)N/C(=C/c2cn(C(C)C)c3ccccc23)C1=O | – | inactive: -12.5% |
| CC(C)Cc1ccc(C(C)C(=O)NC(c2ccccc2)c2ccccc2)cc1 (stereo not given) | – | inactive: -15.4% |
| O=C(c1nc(-c2ccsc2)c2cnccn12)N1CCCC1 | active: 35.5 µM | – |
| Cn1c(CN2CC[C@H](c3nc4ccccc4[nH]3)C2)nc2ccccc21 | inconclusive: 39.8 µM [inhibitor, partial curve, poor fit] | – |
| O=c1c2ccc(Cl)cc2nc2n1CC/C2=C\c1cccc(O)c1 | inconclusive: 39.8 µM [inhibitor, single point] | – |
| O=C(CN1c2ccccc2Sc2ccccc21)N/N=C/c1ccc(Cl)cc1 | – | inactive: 1.92% |
| Cc1noc(C)c1[S+](=O)([O-])NC1CCN(c2nc3ncccc3o2)CC1 | inconclusive: 22.4 µM [inhibitor, partial curve, poor fit] | – |
| O=C(Nc1ccc(F)cc1)c1ccc(Cn2nc(N3CCN(c4ccccc4)CC3)ccc2=O)o1 | inconclusive: 17.8 µM [inhibitor, partial curve, poor fit] | – |
| O=C(O)CCC1CCCN(S(=O)(=O)c2cccc(F)c2)C1 (stereo not given) | – | inactive: 19.3% |
| COCCNC(=O)/C(C#N)=C\c1cccc(C(F)(F)F)c1 | – | inactive: 23.2% |
| CCN1CCN(CCCNC(=O)Cn2c(-c3cccs3)cc3ccccc32)CC1 | inconclusive: 31.6 µM [inhibitor, partial curve, poor fit] | – |
| CC(=O)Nc1ccc(S(=O)(=O)Nc2ccc(N3CCCCC3)cc2)cc1 | inconclusive: 25.1 µM [inhibitor, partial curve, poor fit] | – |
| CNc1ncccc1C(=O)N1CCCN(Cc2ccc(F)cc2)C(C(C)C)C1 (stereo not given) | inconclusive: 22.4 µM [inhibitor, partial curve, poor fit] | – |
| Cc1noc(-c2ccc3c(c2)OCO3)c1C(=O)NCc1cc(F)cc(F)c1 | active: 28.2 µM | – |
| COc1ccc(-c2cc(-c3ccccc3)c(C#N)c(SCC(O)CS(=O)(=O)Cc3ccccc3)n2)cc1 (stereo not given) | inconclusive: 28.2 µM [inhibitor, partial curve, poor fit] | – |
| Cc1ccc2[nH]c(C(=O)N/N=C/c3ccccc3O)c(C)c2c1 | inconclusive: 15.8 µM [inhibitor, partial curve, poor fit] | – |
| O=C1NCCCCCCN(Cc2ccncc2)[C@@H]2CN(Cc3ccncc3F)CC[C@@H]12 | inconclusive: 28.2 µM [inhibitor, single point] | – |
| O=C(Nc1ccc(Br)cc1)N1CCc2ccccc2C1 | – | inactive: -9.72% |
| COc1ccccc1-c1nc2c(c(SCC(=O)Nc3ccccc3F)n1)Cc1c(CO)cnc(C)c1O2 | inconclusive: 31.6 µM [inhibitor, partial curve, poor fit] | – |

| SMILES | Potency | activity change, negative = inhibition |
| --- | --- | --- |
| CS(=O)(=O)c1ccc(N2CCN(C(=O)[C@H]3CC[C@@H](N)C3)CC2)c(F)c1 | inconclusive: 35.5 µM [inhibitor, partial curve, poor fit] | – |
| CC(C)C(=O)NC(C)C(=O)N1CCN(c2ccccn2)CC1 (stereo not given) | inconclusive: 28.2 µM [inhibitor, partial curve, poor fit] | – |
| O=C(NCc1cccs1)c1nc(-c2ccc(Cl)cc2Cl)c2ccccn12 | active: 28.2 µM | – |
| COc1cc(Br)cc(/C=N/N(CCO)C2=NS(=O)(=O)c3ccccc32)c1OC | inconclusive: 28.2 µM [inhibitor, partial curve, poor fit] | – |
| O=C(O)c1ccc(-c2ccc(CO)o2)cc1 | inconclusive: 28.2 µM [inhibitor, partial curve, poor fit] | – |
| Cc1cccc(NC(=S)Nc2ccc(N(C)C)cc2)c1 | inconclusive: 10 µM [inhibitor, partial curve, poor fit] | – |
| CN(C)C1CCN(c2nccc(C3(c4ccccc4Cl)CCNCC3)n2)C1 (stereo not given) | active: 28.2 µM | – |
| Cc1ccc2[nH]c(C(=O)NCc3ccccc3)cc2c1 | inconclusive: 28.2 µM [inhibitor, partial curve, poor fit] | – |
| Cc1ccc(C)c(NC(=O)Cn2c(=O)n(-c3ccccc3C)c(=O)c3c2c2cc(C)ccc2n3C)c1 | inconclusive: 1.12 µM [inhibitor, partial curve, poor fit] | – |
| O=C(CC1COCCN1)N1CCC2(CCC(=O)N(CCc3ccncc3)C2)CC1 (stereo not given) | inconclusive: 14.1 µM [inhibitor, partial curve] | – |
| OC[C@@H]1CN(c2ccc(-c3nc(-c4cccc(C(F)(F)F)c4)no3)cn2)C[C@H]1CO | active: 28.2 µM | – |
| Cc1cccc(C(=O)Nc2cccc(OCc3cc(=O)n4cc(C)sc4n3)c2)c1 | – | inactive: -8.51% |
| Cc1ccc(C(C)C)c(OCC(=O)NCC2(N3CCOCC3)CCCCC2)c1 | inconclusive: 17.8 µM [inhibitor, single point] | – |
| CC(C)c1nc(-c2ccc(C(=O)N[C@@H]3COCC[C@@H]3OCC3CC3)cc2)no1 | – | inactive: 3.13% |
| CC(C)C(C)(C#N)NC(=O)COc1ccc2ccc(=O)oc2c1 (stereo not given) | inconclusive: 28.2 µM [inhibitor, partial curve, poor fit] | – |
| COc1ccc(F)c(CN2C[C@@H](C(=O)O)C[C@@H](C(=O)NCc3ccccn3)C2)c1 | inconclusive: 28.2 µM [inhibitor, partial curve, poor fit] | – |
| CC(=O)N1CCc2c(sc3c2c(=O)n(-c2ccccc2C)c(=O)n3CC(=O)c2ccccc2)C1 | inconclusive: 4.47 µM [inhibitor, partial curve, poor fit] | – |
| Cc1ccc(-c2csc(C(C#N)=C3CCC(C)CC3)n2)cc1 (stereo not given) | – | inactive: 6.02% |
| Cc1ccc(C(=O)NCC(=O)OCc2cc(=O)n3c(C)csc3n2)cc1 | inconclusive: 17.8 µM [inhibitor, partial curve, poor fit] | – |
| CCNc1nc(NCC)nc(N(C)/N=C/c2ccco2)n1 | inconclusive: 28.2 µM [inhibitor, single point] | – |
| Cc1cn2nc(C(=O)NCc3ccccc3F)cc2c(=O)[nH]1 | inconclusive: 31.6 µM [inhibitor, partial curve, poor fit] | – |
| CC(=O)NC[C@@H]1C=C(C)[C@H](CC(=O)O)C[C@H]1C(C)C | – | inactive: -16.8% [at 115 µM] |

| SMILES | Potency | activity change, negative = inhibition |
| --- | --- | --- |
| CC(C)NS(=O)(=O)c1cc(C(=O)O)cc(-c2ccc3c(c2)OCO3)c1 | – | inactive: 8.78% |
| COC(=O)[C@@H]1Cc2nc[nH]c2CN1C(=O)c1ccccc1 | – | inactive: -26.6% [at 115 µM] |
| FC(F)(F)c1cccc(Nc2cnc3ccc(N4CCOCC4)nn23)c1 | active: 35.5 µM | – |
| COc1ccc(-c2cccc(CCOc3cnc4c(ccn4CC(=O)O)c3)c2)c(C)c1 | active: 39.8 µM | – |
| N#Cc1cccc(NC(=O)C2CCN(c3cnccn3)CC2)c1 | inconclusive: 31.6 µM [inhibitor, single point] | – |
| O=C(Cn1c(NCc2ccccc2)nc2ccccc21)N1CCCCC1 | – | inactive: -16.6% |
| CCCCn1c(=O)[nH]c(=O)c2c1nc(CN1CCN(S(=O)(=O)c3ccc(C)cc3)CC1)n2CC | – | inactive: -2.23% |
| COCc1ccc2c(c1)c(OC(C)(C)C(=O)NCC[S+](C)(=O)[O-])nn2Cc1ccccc1 | active: 28.2 µM | – |
| CC(=O)Nc1ccc(NC(=O)c2cc3c(=O)n(Cc4cccnc4)ccc3nc2C)cc1 | inconclusive: 35.5 µM [inhibitor, single point] | – |
| Oc1ccc(N=Cc2cccc3ccccc23)cc1 | inconclusive: 7.94 µM [inhibitor, full curve, poor fit] | – |
| CC1=C(C(=O)Nc2cc(C)ccc2C)C(c2cccc3ccccc23)NC(=S)N1 (stereo not given) | inconclusive: 7.94 µM [inhibitor, full curve, poor fit] | – |
| CCN(C(=O)CSc1nc2cc(S(=O)(=O)N(CC)CC)ccc2o1)C1CCS(=O)(=O)C1 (stereo not given) | inconclusive: 39.8 µM [inhibitor, partial curve, poor fit] | – |
| COc1ccc2cc(/C=N/NC(=O)CN(c3ccccc3OC)S(=O)(=O)c3ccccc3)c(Cl)nc2c1 | inconclusive: 17.8 µM [inhibitor, partial curve, poor fit] | – |
| COc1ccc(OCC(=O)N2CCCC3(C2)Nc2cccnc2NC3=NC2CCCC2)cc1 (stereo not given) | active: 25.1 µM | – |
| CN1CCCC1COc1ccc2c(n1)CN(Cc1ccc(F)cc1)C(=O)CO2 (stereo not given) | – | inactive: -13.7% [at 86.2 µM] |
| CCOc1ccccc1C1C(C(N)=O)=C(C)Nc2nc(-c3ccccc3Cl)nn21 (stereo not given) | inconclusive: 35.5 µM [inhibitor, single point] | – |
| Cc1ccc(NC(=O)Cc2c(C)nc3nc(-c4cccs4)nn3c2C)c(C)c1 | inconclusive: 1.78 µM [inhibitor, full curve, poor fit] | – |
| CC1CCCN(Cc2c(O)ccc3c(=O)c(-c4ccc(Cl)cc4)coc23)C1 (stereo not given) | inconclusive: 17.8 µM [inhibitor, partial curve, poor fit] | – |
| CCN1CCC2(CC1)Oc1c(OC)cccc1C1CC(c3ccc(Cl)cc3)=NN12 (stereo not given) | inconclusive: 31.6 µM [inhibitor, single point] | – |
| CCn1c(CO)nnc1C1CC(NC(=O)c2cccc3c2OCCO3)C1 (stereo not given) | inconclusive: 17.8 µM [inhibitor, partial curve, poor fit] | – |
| CC(=O)Nc1ccc(CNC(=O)c2nccnc2N)cc1 | inconclusive: 25.1 µM [inhibitor, partial curve, poor fit] | – |

Source: PubChem BioAssay AID1347165 (National Center for Advancing Translational Sciences (NCATS), 2019)
